The target in series [1] is erythrocyte cholinesterase (Homo sapiens, UniProt P22303). The following applies: 13 workers exposed for 12 months to an average of 0.7 mg/m^3; cited from earlier work.
Series [2] deals with rats. The following applies: 1000 mg/kg diet; cited from earlier work.
In series [3] the test system is EYES. Conditions: in vivo; cited from earlier work.
The subject of series [4] is humans. Conditions: 4.5 g in a single dose, usual cholinergic symptoms, no polyneuritis; cited from earlier work.
Series [5] addresses serum cholinesterase (Homo sapiens, UniProt P06276). Conditions: 13 workers exposed for 12 months to an average of 0.7 mg/m^3; cited from earlier work.
Series [6] relates to Ants, aphids, mites, mealybugs, ticks, Drosophila, flies and many others. The following applies: cited from earlier work.
Series [7] concerns carmine spider mite. The following applies: adults; cited from earlier work.
The subject of series [8] is workers. The following applies: 13 workers exposed for 12 months to an average of 0.7 mg/m^3; cited from earlier work.
The subject of series [9] is rosacea. Kind of series: Topical 1% dichlorvos (DDVP) wash treatment of rosacea, Patient 1.

Regarding `COP(=O)(OC)OC=C(Cl)Cl` [dichlorvos, 2,2-dichlorovinyl dimethyl phosphate], the “Reduction of erythrocyte cholinesterase activity” value in series [1] is listed as “approximately 35%”. The “Intoxication in 90-day feeding trials” value in series [2] is “no intoxication”. Further, the Eye irritation entry in series [3] was “Not known to be an eye irritant”. Moreover, the “Adverse effects after ingestion” value in series [4] is given as “few adverse effects”. Moreover, in series [5], the “Reduction of serum cholinesterase activity” value is on record as 60%. For the same compound, in series [6], the Knock-down effects result was “Extremely fast knock-down effects” and the Residual control is reported as 2-3 weeks. In series [7], the LT50 is 28 s. Further, in series [8], the “Results of other tests and thorough medical examinations” value was “entirely normal”. Further, the “Resolution of clinical symptoms” value in series [9] (1% DDVP wash every 3 days, entire body and face) is listed as “resolution of many clinical symptoms”. Besides, the “Redness, erythema and pustules on cheeks and chin” value in series [9] (Patient 1) was “cleared”. In addition, the Papules entry in [9] (Patient 1, 1% solution, every 3 to 4 days, by 12 weeks) was “no papules are present”. The Return of symptoms result in [9] (Patient 1, 6 months post-treatment) is “had not returned”. The “Speed and effectiveness compared with all available treatment options” value in series [9] (Patient 1, DDVP wash regimen) was “fastest acting and most effective”. In addition, the Itching and burning result in series [9] (Patient 1, after just a few treatments) is reported as “cessation”. Moreover, in series [9] (Patient 1, by 12 weeks), the “Flushing with heat, spicy foods or other rosacea flare triggers” value was “no more flushing”.

These data come from US10709135B2, “Organophosphates for treating afflictions of the skin” (priority 2013, dated 2020).
